This note sets out measurements from PubChem BioAssay AID1508642 (National Center for Advancing Translational Sciences (NCATS), 2021).

Structures are written as SMILES. Among all 43,000 compounds or so, about 200 (0.47%) were called active. Roughly 12% stayed inconclusive and do not appear here. Calls follow the shape of the dose curve; as a rule, active = well fitted cell-killing curve with a large enough effect; inconclusive = small, poorly fitted or top-dose-only effect, or effect the other way; inactive = flat fitted curve, though single readings scatter. Some of the results follow.
% is scaled to controls: 0 for no effect and ±100 for the full control effect; potency is read from the fitted curve at half-maximal effect.

The experiment can be described thus: Cell viability qHTS assay in S16 Pmp22-F2sN cells. Also: nearly all actives have a fitted effect of over 65% in size. The note with it: S16 Pmp22-F2sN Schwann cells (luciferase reporters placed in the Pmp22 gene) viability, CellTiter-Glo, 24 h; series mostly up to 57.5 µM; activity change, negative = cytotoxicity: at the top concentration. Put shortly:
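Seed 500-1,000 S16 Pmp22-F2sN cells per well in phenol-red-free DMEM with 10% heat-inactivated FBS; pin-add 23 nL compound; incubate 24 h at 37C; add CellTiter-Glo, wait 15 min protected from light; read luminescence.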
A general note: Quantitative high-throughput screening tests each substance at several concentrations.
Turning to `Cc1cc(C)c(S(=O)(=O)NCc2csc(-c3ccccc3)n2)c(C)c1`, the “activity change, negative = cytotoxicity” value is inactive: -9.21%.

With `O=C(COc1ccccc1[N+](=O)[O-])Nc1cc(-c2nc3cc(Cl)ccc3o2)ccc1Cl`, the “activity change, negative = cytotoxicity” value is inactive: 12.9%.

As for `COC(=O)c1ccc(Oc2nc3c(c(=O)n(C)c(=O)n3C)n2C(C)C)cc1`, the “activity change, negative = cytotoxicity” value was inactive: 3.87%.

In the case of `CCc1ccccc1N(C)C(=O)c1nn(C)c2c1CSc1ccccc1-2`, the “activity change, negative = cytotoxicity” value is inactive: 13.9%.

Take `CCCCNC(=O)CSc1nc2cc3c(cc2c(=O)n1CCCCCC(=O)NCCc1ccc(OC)c(OC)c1)OCO3`: the “activity change, negative = cytotoxicity” value is inactive: 2.55%.

With `Cc1ccc2nc(N3CCC(C(=O)NCc4ccc(F)cc4)CC3)[nH]c2c1`, the “activity change, negative = cytotoxicity” value is inactive: 19.4%.

For the molecule `CCCCCC(=O)N(c1ccc(OCC)cc1)S(=O)(=O)c1ccc2c(c1)n(C)c(=O)n2C`, the “activity change, negative = cytotoxicity” value was inactive: -4.32%.

For `Cc1ccc(CCNC(=O)c2ccc(CS(=O)(=O)Cc3cccc(C)c3)o2)cc1`, the “activity change, negative = cytotoxicity” value is inactive: 20.4%.

For `Cc1ccc(NC(=O)Cn2cc3c(n2)CCC(C)C3)cc1C` (stereo not drawn), the “activity change, negative = cytotoxicity” value was inactive: 7.26%.

As for `COc1ccc(Cn2ccc3nc(C)c(C(=O)N4CCN(c5ccccc5F)CC4)cc3c2=O)cc1`, the “activity change, negative = cytotoxicity” value is inactive: 6.9%.

Consider `CSc1ccc(CNC(=O)CN2C(=O)C3CCCCN3c3ccc(C(=O)N4CCCC4)cc32)cc1` (stereo not drawn), for which the “activity change, negative = cytotoxicity” value was inactive: -16.3%.

As for `Cn1ccc2c(OCC(=O)Nc3ccc([N+](=O)[O-])cc3)cccc2c1=O`, the “activity change, negative = cytotoxicity” value is inactive: 6.46%.

As to `Cc1cccc(OCC(=O)Nc2ccc3oc(-c4ccccc4F)nc3c2)c1`, the “activity change, negative = cytotoxicity” value is inactive: 13.1%.

On to `COC(=O)c1cc2sc(C)cc2n1CC(=O)Nc1cccc(SC)c1`, for which the “activity change, negative = cytotoxicity” value was inactive: 3.81%.

`O=S(=O)(NCc1nc2cccnc2n1Cc1ccc(F)cc1)c1ccc(Cl)s1`: the “activity change, negative = cytotoxicity” value is inactive: -8.36%.

In the case of `COc1ccc(-c2nc3cc(C(C)C)ccc3o2)cc1NC(=O)c1ccc(C)c(Cl)c1`, the “activity change, negative = cytotoxicity” value is inactive: -2.06%.

In the case of `CCc1ccc(NC(=O)C2CCN(S(=O)(=O)c3c(C)noc3/C=C/c3ccco3)CC2)cc1`, the “activity change, negative = cytotoxicity” value is inactive: 7.65%.

With `FC(F)(F)c1ccc(-c2noc(-c3ccccc3Br)n2)cc1`, the “activity change, negative = cytotoxicity” value was inactive: -17.8%.

Take `CCOC(=O)C1CCN(C(=O)c2ccc3c(c2)sc2nc(-c4ccc(C)cc4)cn23)CC1`: the “activity change, negative = cytotoxicity” value is inactive: -20%.

Consider `COc1ccc(OC)c(/C=C(\C#N)c2nc3ccccc3c(=O)[nH]2)c1`, for which the “activity change, negative = cytotoxicity” value is inactive: 1%.

Regarding `O=C(CCC(=O)c1ccccc1)Nc1ccc(F)c(Cl)c1`, the “activity change, negative = cytotoxicity” value was inactive: 5.24%.

Take `COc1ccc(CCN2CC(C(=O)NCCc3ccccc3)CC2=O)cc1OC` (stereo not drawn): the “activity change, negative = cytotoxicity” value is inactive: 25%.

Consider `Cc1ccc(C)c(S(=O)(=O)NCCc2csc(-c3ccc(Cl)cc3)n2)c1`, for which the “activity change, negative = cytotoxicity” value was inactive: -3.44%.

`Cc1cccc(NC(=O)C2CCCN(S(=O)(=O)c3ccc4c(c3)oc(=O)n4C)C2)c1` (stereo not drawn): the “activity change, negative = cytotoxicity” value is inactive: 2.18%.

As for `O=S(=O)(NCCS(=O)(=O)N1CCN(c2ccccc2)CC1)c1ccc(Cl)cc1`, the “activity change, negative = cytotoxicity” value is inactive: -1.54%.

In the case of `Cc1sc2c(c1C)c(=O)n(CCc1ccccc1)c(=O)n2Cc1ccc(F)cc1`, the “activity change, negative = cytotoxicity” value is inactive: -29.6%.

With `O=C(Nc1ccc(Cl)cc1)c1cc2nc(-c3ccc4c(c3)OCO4)cc(C(F)(F)F)n2n1`, the “activity change, negative = cytotoxicity” value was inactive: -0.956%.

`CCn1c(=O)n(-c2cccc(Cl)c2)c(=O)c2sc3ccccc3c21`: the “activity change, negative = cytotoxicity” value was inactive: 1.66%.

Consider `CC(=O)c1ccc(N2CCN(C(=O)c3cc4ccc5cccnc5c4[nH]3)CC2)cc1`, for which the “activity change, negative = cytotoxicity” value was inactive: 12%.

Turning to `COc1ccc(C(=O)Nc2ccccc2-c2nc(-c3ccc(OC)cc3)no2)cc1`, the “activity change, negative = cytotoxicity” value is inactive: 1.27%.

For the molecule `CCOC(=O)c1ccc2c(c1)[C@@H]1C=CC[C@@H]1[C@H](c1cccc(OC)c1OC)N2`, the “activity change, negative = cytotoxicity” value is inactive: -4.96%.

Take `Cc1cc(C)c2sc(N(Cc3cccnc3)C(=O)CCOc3ccccc3)nc2c1`: the “activity change, negative = cytotoxicity” value was inactive: -16.7%.

With `COc1cccc(CNC(=O)CSC2=Nc3ccccc3C3=NC(C)C(=O)N23)c1OC` (stereo not drawn), the “activity change, negative = cytotoxicity” value was inactive: -2.83%.

On to `CCOc1ccc(NC(=O)Cn2c(=O)n(CCCC(=O)NCc3ccc4c(c3)OCO4)c(=O)c3ccccc32)cc1`, for which the “activity change, negative = cytotoxicity” value was inactive: 2.4%.

For the molecule `Cc1ccc(CSc2ncc(Cl)c(C(=O)Oc3ccc(F)cc3)n2)cc1`, the “activity change, negative = cytotoxicity” value was inactive: 3.79%.

On to `Cc1ccc(-n2nc3ccc(NC(=O)Cc4ccc(Cl)cc4)cc3n2)cc1`, for which the “activity change, negative = cytotoxicity” value is inactive: 27.8%.

On to `CCOC(=O)c1c(NC(=O)C(C)Sc2cn(CCNC(=O)c3ccccc3OC)c3ccccc23)sc2c1CCC2` (stereo not drawn), for which the “activity change, negative = cytotoxicity” value was inactive: -1.28%.

Take `COC(=O)c1sc2cccc(F)c2c1S(=O)(=O)NCc1ccc(Cl)cc1`: the “activity change, negative = cytotoxicity” value is inactive: 1.34%.

Turning to `CCOC(=O)COc1ccc(CC)cc1C(=O)c1ccn2nc(-c3ccc(Cl)cc3)cc2n1`, the “activity change, negative = cytotoxicity” value was inactive: 23.3%.

With `O=C(c1ccc2c(c1)N(Cc1ccc(F)cc1)C(=O)c1ccccc1S2(=O)=O)N1CCN(c2ccccn2)CC1`, the “activity change, negative = cytotoxicity” value is inactive: -6.81%.

Regarding `COc1ccccc1CNC(=O)c1cnc2c(-c3ccccc3)c(C)nn2c1C`, the “activity change, negative = cytotoxicity” value is inactive: 3.78%.

In the case of `CCCCS(=O)(=O)c1oc(-c2ccc(F)cc2)nc1S(=O)(=O)c1ccccc1`, the Potency is active: 4.47 µM.

As for `Fc1ccc(-c2cc(C(F)(F)F)nc(NCc3ccccc3)n2)cc1`, the “activity change, negative = cytotoxicity” value was inactive: 9.54%.

Turning to `O=C(NCc1cccc(F)c1)c1ccc2nc(N3CCCCC3)sc2c1`, the “activity change, negative = cytotoxicity” value was inactive: -1.7%.

On to `CCOC(=O)C1CCCN(S(=O)(=O)c2cc3c(cc2C)NC(=O)CO3)C1` (stereo not drawn), for which the “activity change, negative = cytotoxicity” value is inactive: 6.79%.

With `Cc1ccc(OCC(=O)Nc2ccc3nc(SCC(N)=O)sc3c2)cc1`, the “activity change, negative = cytotoxicity” value was inactive: -0.988%.

On to `COc1ccc(Cn2c(=O)c3oc4ccccc4c3n(Cc3cccc(F)c3)c2=O)cc1`, for which the “activity change, negative = cytotoxicity” value is inactive: -7.72%.

Take `O=C(CSc1nc2c([nH]c3ccccc32)c(=O)n1-c1ccc(F)cc1)NCc1ccco1`: the “activity change, negative = cytotoxicity” value was inactive: 4.41%.

Consider `CC1=C(C(=O)Nc2cc(Cl)ccc2C)C(c2ccco2)n2ncnc2N1` (stereo not drawn), for which the “activity change, negative = cytotoxicity” value is inactive: 2.47%.

For the molecule `CCSc1nnc2c(n1)OC(c1sccc1C)N(C(C)=O)c1ccccc1-2` (stereo not drawn), the “activity change, negative = cytotoxicity” value is inactive: -11.8%.

Take `COC(=O)c1c(C)oc2ccc(N(C(=O)Oc3ccccc3)S(=O)(=O)c3ccc(C(C)(C)C)cc3)cc12`: the “activity change, negative = cytotoxicity” value is inactive: -20.6%.

With `Cc1c(C)n(C)c2ccc(C(=O)NCCc3ccc(Cl)cc3)cc12`, the “activity change, negative = cytotoxicity” value was inactive: -0.243%.

`Cc1ccc(NC(=O)C2CCCN(S(=O)(=O)c3c(C)n[nH]c3C)C2)cc1Cl` (stereo not drawn): the “activity change, negative = cytotoxicity” value was inactive: -18.9%.

As to `Cc1ccc(C2C=C(c3ccc(F)cc3)Nc3nc(CCCO)nn32)cc1` (stereo not drawn), the “activity change, negative = cytotoxicity” value is inactive: 0.437%.

`CCOc1ccc(C(=O)c2cn(Cc3ccccc3)c3c(F)cc(F)cc3c2=O)cc1`: the “activity change, negative = cytotoxicity” value is inactive: -5.06%.

As to `COc1ccc(OC)c(NC(=O)c2cnc(N3CCCC3)nc2C)c1`, the “activity change, negative = cytotoxicity” value is inactive: -0.445%.

As for `Cc1nn(-c2ccc(F)cc2)c(-n2cccc2)c1C(=O)N1CCN(c2ccccc2F)CC1`, the “activity change, negative = cytotoxicity” value is inactive: 3.79%.

`Cc1c(C(=O)Nc2ccc(F)c(F)c2)oc2ccc(S(=O)(=O)N3CCC4(CC3)OCCO4)cc12`: the “activity change, negative = cytotoxicity” value is inactive: 1.89%.

In the case of `O=C(Nc1c(-c2ccc(F)cc2)nc2ccccn12)c1cccc(F)c1`, the “activity change, negative = cytotoxicity” value is inactive: -4.51%.

In the case of `CC(=O)Nc1ccc(NS(=O)(=O)c2ccc(Cl)s2)cc1`, the “activity change, negative = cytotoxicity” value was inactive: -4.02%.

Consider `COc1ccccc1CNC(=O)CN(c1ccc(C)cc1)S(=O)(=O)c1c(C)noc1C`, for which the “activity change, negative = cytotoxicity” value was inactive: 6.81%.

For `O=C(CN1C(=O)CCc2cc(S(=O)(=O)N3CCOCC3)ccc21)NCc1ccccc1Cl`, the “activity change, negative = cytotoxicity” value is inactive: 4.78%.

Turning to `CCCOc1ccc(NC(=O)CC2C(=O)N(c3ccc(C)cc3)C(=O)N2C2CCCC2)cc1` (stereo not drawn), the “activity change, negative = cytotoxicity” value is inactive: -0.0118%.
